The source of these data is PubChem BioAssay AID2060501 (Molecular Pharmacology Branch, DTP, NCI, 2025).

The subject of the experiment is 282377-053-R-J1-PDC complex spheroids, viability. The experiment in a line: Anticancer human tumor 282377-053-R-J1-PDC patient-derived colon adenocarcinoma cell line growth inhibition [GQUAD]. Particulars: for IC50: compound alone; for viability, T/C: stronger effect = lower value. From the text: DNA G-quadruplex Stabilizer Agents in Combinations in Complex Spheroids
A high-throughput screen of multi-cell type tumor spheroids was designed to identify active combinations of DNA G-quadruplex stabilizer agents and targeted small molecules. Complex spheroids include a stromal component modeled by human endothelial cells (HUVEC) and fibroblasts modeled by human mesenchymal stem cells (MSCs). The concentration ranges selected for each drug and investigational agent were based upon clinically achievable concentrations if the clinical Cmax of the agent was known.
Compounds. The drugs and investigational agents: pidnarulex (CX-5461; NSC782164), APTO-253 (NSC789042), BRACO-19 (NSC847499), peposertib (NSC802822), ceralasertib (NSC780249), elimusertib (NSC800525), camonsertib (NSC841442), AZD-1390 (NSC803789), olaparib (NSC753686), talazoparib (NSC767125), ART-558 (NSC835418), sotorasib (NSC818433), MRTX-1133 (NSC836407), SN-38 (NSC673596), topotecan (NSC609699), etoposide (NSC141540), doxorubicin (NSC123127), gemcitabine (NSC613327), 5-fluorouracil (NSC19893), paclitaxel (NSC125973), vemurafenib (NSC761431), panobinostat (NSC761190), R-306465 (JNJ-16241199; NSC773264), adavosertib (NSC754352), TP-3654 (NSC805149), carboplatin (NSC241240), KSQ-4279 (NSC840948), and staurosporine (NSC755774) were obtained from the National Cancer Institute (NCI) Developmental Therapeutics Program Chemical Repository (34). The FDA-approved anticancer drug set is available from the NCI Developmental Therapeutics Program. […] The stock solutions were prepared in dimethyl sulfoxide (DMSO, Sigma-Aldrich, St. Louis, MO, cat. D2650) at 800-fold the tested concentration and stored at -70 degrees C prior to their use. All drugs and investigational agents were tested over a range starting from a high concentration at or near the clinical Cmax and decreasing in half-log increments. If the clinical Cmax for an agent had not been determined, the highest concentration tested was 10 microM.
2.3 Cell Culture. All cells were maintained in an incubator at 37 degrees C and 5% CO2 with 95% humidity. The PDC lines were cultured according to standard operating procedures established by the NCI PDMR. All PDCs were thawed and cultured in Matrigel-coated flasks prepared with a working solution of 1X Ham's F-12 nutrient mix, without supplementation (Invitrogen, cat. 11765054), 100 U/mL penicillin-streptomycin (Invitrogen, cat. 15140122), and 2.5% Matrigel (Corning Inc., cat. 354248) for the first three passages. The 857933-349-R-J2-PDC line was cultured in 6C/Colon 1B media, which includes advanced DMEM/F-12 (Thermo Fisher Scientific, cat. 12634028), 10 mM HEPES (Thermo Fisher Scientific, cat. 15630080), 1X GlutaMAX supplement (Thermo Fisher Scientific, cat. 35050061), 0.1 mg/mL primocin (InvivoGen, cat. ant-pm-2), 10% defined fetal bovine serum, heat inactivated (HyClone Laboratories Inc., cat. SH30070.03HI), 50% L-WRN conditioned media (ATCC, cat. CRL-3276), 1.25 mM N-Acetyl-L-cysteine (Sigma-Aldrich, cat. A9165), 10 mM nicotinamide (Sigma-Aldrich, cat. N0636), 1X B-27 supplement (Thermo Fisher Scientific, cat. 17504044), 1X N-2 supplement (Thermo Fisher Scientific, cat. 17502048), 10 microM Y-27632 dihydrochloride (Tocris Bioscience, cat. 1254), and 50 ng/mL human EGF recombinant protein (Thermo Fisher Scientific, cat. PHG0311). The 485176-168-R4-J1-PDC line was cultured in Panc media, which includes all 6C/Colon 1B media components plus 100 ng/mL human FGF-10 (Thermo Fisher Scientific, cat. 100-26), 500 nM SB-431542 (Selleckchem, cat. S1067), and gastrin (Tocris, cat. 3006).
[…]

Some entries of the source have several records that differ or are many. They are shown here; other results are not. An entry can have further records. Values that stand side by side repeat one measurement in other runs, samples, wells, individuals or studies. Marks such as (2×) count equal records among those shown.
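Also: spheroids exposed to compounds for 7 days before readout.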
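For viability, T/C in this document: percent of vehicle DMSO control viability with 100% = untreated-like growth.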

Take `O=C(NO)c1cnc(N2CCN(S(=O)(=O)c3ccc4ccccc4c3)CC2)nc1`: the 50% inhibitory concentration (IC50) (in general, the point on the concentration scale where inhibition reaches its midpoint) is 412 nM, 41.4 nM, 491 nM.
Turning to `CC(=O)O[C@H]1C(=O)[C@@]2(C)[C@H]([C@H](OC(=O)c3ccccc3)[C@]3(O)C[C@H](OC(=O)[C@H](O)[C@@H](NC(=O)c4ccccc4)c4ccccc4)C(C)=C1C3(C)C)[C@]1(OC(C)=O)CO[C@@H]1C[C@@H]2O`, the IC50 is < 31.6 nM, 538 nM, 44.1 nM. The viability, T/C (compound alone 10 µM) is on record as 22.2%, 0.16%, 26.6%.
With `CN(C)c1ccc(Nc2c3ccc(NC(=O)CCN4CCCC4)cc3nc3cc(NC(=O)CCN4CCCC4)ccc23)cc1`, the viability, T/C reads like this: (compound alone 0.0316 µM) 81.3, 82.5, 87.8, 85.2, 93.5, 86.8, 101, 91.7, 107, 104, 84.4, 85%; (compound alone 0.316 µM) 95.8, 85.4, 103, 115, 86.3, 106, 93.5, 102, 98.9, 99.2, 101, 99.9%; (compound alone 1 µM) 101 (2×), 98.1, 79.7, 96.5, 103, 98.9, 108, 93.5, 102, 97.3, 105%; (compound alone 10 µM) 87.9, 96, 78.9, 98.1, 93.8, 88.4, 94.4, 91.2, 97.1, 107, 83.7, 81.5%.
Consider `COc1ncnc(C2CC2)c1-c1ncc2cnn(Cc3ccc(-c4nc(C(F)(F)F)cn4C(C)C)cc3)c2n1`, for which the viability, T/C (compound alone 10 µM) was 93.8%, 7.29%, 75.9%.
With `Cc1cnc(CNC(=O)c2c(=O)c3ccc(N4CCCN(C)CC4)nc3n3c2sc2ccccc23)cn1`, the viability, T/C reads like this: (compound alone 0.0316 µM) 92.8, 91.4, 97.7, 94.8, 87.8, 93.6, 95.1, 96.4, 73, 102, 101, 85.1%; (compound alone 0.1 µM) 109, 94.2, 118, 102, 79.3, 87.5, 111, 113, 106, 98.3, 99, 108%; (compound alone 0.316 µM) 94.9, 88.8, 102, 88.3, 94.8, 88.6, 79.9, 71.6, 99.5, 92.6, 81.9, 90.1%. The concentration for half-maximal inhibition (IC50) (run of 04/16/2024) is listed as 1.71 µM, 2.34 µM, > 10 µM, 6.37 µM.
Consider `Cc1[nH]c2ccc(F)cc2c1-c1nc2c3cccnc3c3ncccc3c2[nH]1`, for which the viability, T/C is, setting by setting: (compound alone 0.1 µM) 109 (2×), 103, 101 (3×), 92.6, 89, 91, 71.3, 96.8, 93.7%; (compound alone 0.316 µM) 91.7, 110, 111 (2×), 101, 85.4, 94.2, 87.6, 122, 102, 97.6, 104%; (compound alone 1 µM) 83.4, 119, 100, 104, 105, 101, 88.4, 110, 106, 102, 107, 109%; (compound alone 3.16 µM) 62, 79.9, 90, 77.5, 86.1, 72, 66.8, 74.6, 106, 89.2, 75.6, 92.7%; (compound alone 10 µM) 51.5 (2×), 57, 42.4, 43.7, 67.9, 58, 50.3 (2×), 46.3, 40.7, 77.2%.
With `Cc1[nH]c2ccccc2c1CCNCc1ccc(/C=C/C(=O)NO)cc1`, the viability, T/C (compound alone 0.316 µM) was 3.88%, 86.6%, 7.87%.
